# Data from PubChem BioAssay (NCATS).
# This list was built around the results that the source calls inconclusive (neither active nor inactive); the mix of calls is not that of the screen. Potencies of inconclusive entries are doubtful fits and often do not repeat. Activity calls are given as the source filed them. Calls come from the whole dose curve; as a rule, active = well fitted inhibition curve with a large enough effect; inconclusive = small, poorly fitted or top-dose-only effect, or effect the other way; inactive = no such curve, though single readings can be large or run the other way.
# Test: High Content Imaging Cell-Based qHTS for Inhibitors of the mTORC1 Signaling Pathway in MEF Cells (AID 2667)
# Conditions: series mostly up to 38.3 µM
# Excerpt: NIH Molecular Libraries Probe Production Centers Network [MLPCN]
# NIH Chemical Genomics Center [NCGC]
# Assay Submitter (PI): Blenis, John; Hoffman, Greg; Harvard University
# NCGC Assay Overview: The mammalian target of rapamycin (mTOR) is an intracellular serine/threonine kinase Aberrant regulation of mTOR signaling plays a causative role in a number of human diseases, including cancer, benign tumors such as lymphangioleiomyomatosis (LAM) and Tuberous Sclerosis Complex (TSC), and metabolic diseases such as diabetes and obesity. This project aims to identify inhibitors of ribosomal protein S6 (rpS6) phosphorylation. The phosphorylation of rpS6 is a key event downstream of mTOR activation. The assay uses a phospho-specific antibody of phospho-rpS6 to detect inhibitors of mTOR activation. Mutations in the Tsc1 and Tsc2 genes are the underlying genetic lesions responsible for TSC, causing constitutive activation of the mTORC1 pathway and leading to profound effects on cell metabolism. Aberrant metabolism in cancer has recently received significant attention as a target to develop therapeutic agents in the treatment of cancer.1 As Tsc2-/- cells have lost the ability to respond to energy and growth factor deprivation, these cells are unable to properly down regulate cellular biosynthetic processes in response to metabolic stress, and are thus extremely sensitive to glucose deprivation-induced death.2 A central goal of this project is to explore the unique cell survival and metabolic properties of cells with Tsc1 or Tsc2 by screening for compounds that selectively target the Tsc2-/- MEFs by screening both Tsc2-/- and WT MEF cell lines. We hope to better understand these aspects of TSC physiology in order to exploit them for therapeutic benefit.
# NCGC IN Cell Assay Protocol:
# For quantitative high throughput analysis of mTORC1 signaling, we developed a cell-based assay for immuno-fluorescence based detection of rpS6 phosphorylation on the Acumen Explorer that will be used a platform for the primary small molecule screen. Mouse embryonic fibroblasts (MEFs) are cultured in 1536-well plates using DMEM + 10% FBS. Twenty-four hrs after plating, test compounds (solubilized in DMSO) are delivered and incubated with the cells for 24 hrs at 37 degree Celsius. Following the incubation, media with compound is aspirated and the cells are fixed in 4% paraformaldehyde (PFA) containing PBS + 0.2% TX-100. Next, PFA is aspirated, cells are washed two times with PBS plus 0.2% TX-100 and the cells are blocked for 1 hr at room temperature (blocking buffer: LiCOR Blocking Buffer plus 0.2% TX-100). This is followed by aspiration and staining with Alexa-488 conjugated-phospho-rpS6 Ser235/236 antibody for 2 hours at room temperature (Cell Signaling Technology # 4803, 1:50 dilution in blocking buffer). Cells are washed two times with PBS plus 0.2% TX-100, and stained with 10 uM propidium iodide (PI) for 20-25 minutes for cell number measurement (1:500 dilution of Hoescht staining is also added for IN Cell imaging). Active wells which are selected (based on Acumen results) are imaged on the IN Cell 1000 (GE Healthcare) using the D360/40X and HQ480/40X excitation filters for the Hoechst and Alexa-488 cytoplasmic stains, respectively. The fluorescence emission filters used were HQ460/40M and HQ535/50M for the Hoechst and Alexa-488 cytoplasmic stains, respectively. The normalized phospho-S6 staining is calculated as the ratio of […] for the single concentration rapamycin control ([…] nM) and DMSO columns. […] Inhibition of the pathway is defined based on the normalized phospho-S6 intensity in rapamycin treated cells. Each treatment is reported as the % positive cells in the well, where thresholds are defined by selecting wells with the highest and lowest signal and differentiating between the % non-active and % active populations. […]
# Potency is the fitted concentration of half-maximal effect; tags give direction and shape of the fitted curve.
row,SMILES,Potency
1,COc1cc(NS(C)(=O)=O)ccc1Nc1c2ccccc2nc2ccccc12,active: 3.69 µM
2,CNCCC=C1c2ccccc2CCc2ccccc21,"inconclusive: 23.3 µM [falling, single point]"
3,COc1cc2c(cc1OC)-c1cc(=Nc3c(C)cc(C)cc3C)n(C)c(=O)n1CC2,inactive
4,CC/C(=C(\c1ccccc1)c1ccc(OCCN(C)C)cc1)c1ccccc1,"inconclusive: 14.7 µM [falling, single point]"
5,CC(=O)[C@]1(O)Cc2c(O)c3c(c(O)c2[C@@H](O[C@H]2C[C@H](N)[C@H](O)[C@H](C)O2)C1)C(=O)c1ccccc1C3=O,active: 0.414 µM
6,O=C(c1ccc(OCCN2CCCCC2)cc1)c1c(-c2ccc(O)cc2)sc2cc(O)ccc12,"inconclusive: 23.3 µM [falling, single point]"
7,CC(C(O)c1ccc(O)cc1)N1CCC(Cc2ccccc2)CC1 (configuration not stated),"inconclusive: 10.4 µM [falling, partial curve, poor fit]"
8,CC#C[C@]1(O)CC[C@H]2[C@@H]3CCC4=CC(=O)CCC4=C3[C@@H](c3ccc(N(C)C)cc3)C[C@@]21C,active: 11.7 µM
9,CN(C)CCCN1c2ccccc2Sc2ccc(Cl)cc21,"inconclusive: 16.5 µM [falling, single point]"
10,CCN(CC)CCCN(c1ccccc1)C1Cc2ccccc2C1,"inconclusive: 18.5 µM [falling, single point]"
11,O=C(CCCN1CCC(O)(c2cccc(C(F)(F)F)c2)CC1)c1ccc(F)cc1,"inconclusive: 14.7 µM [falling, single point]"
12,Nc1ccn([C@@H]2O[C@H](CO)[C@@H](O)C2O)c(=O)n1 (some centres not stated),"inconclusive: 0.927 µM [falling, full curve, poor fit]"
13,Nc1ncn([C@@H]2O[C@H](CO)[C@@H](O)[C@H]2O)c(=O)n1,"inconclusive: 0.736 µM [falling, full curve, poor fit]"
14,COc1cc(C(=O)OCCCN2CCCN(CCCOC(=O)c3cc(OC)c(OC)c(OC)c3)CC2)cc(OC)c1OC,"inconclusive: 23.3 µM [falling, single point]"
15,Clc1ccc2c(c1)C(N1CCNCC1)=Nc1ccccc1O2,"inconclusive: 23.3 µM [falling, single point]"
16,OCCN1CCN(CCCN2c3ccccc3Sc3ccc(Cl)cc32)CC1,"inconclusive: 26.1 µM [falling, single point]"
17,CCC(=O)c1ccc2c(c1)N(CCCN(C)C)c1ccccc1S2,active: 16.5 µM
18,CCOC(=O)C1=C(C)NC(C)=C(C(=O)OC)C1c1cccc([N+](=O)[O-])c1 (configuration not stated),"inconclusive: 13.1 µM [falling, single point]"
19,CC(CN1c2ccccc2Sc2ccccc21)N(C)C (configuration not stated),"inconclusive: 14.7 µM [falling, single point]"
20,O=C1NCN(c2ccccc2)C12CCN(CCCC(c1ccc(F)cc1)c1ccc(F)cc1)CC2,"inconclusive: 26.1 µM [falling, single point]"
21,Nc1nc(N)c2nc(CNc3ccc(C(=O)NC(CCC(=O)O)C(=O)O)cc3)cnc2n1 (configuration not stated),inactive
22,COCC(=O)O[C@]1(CCN(C)CCCc2nc3ccccc3[nH]2)CCc2cc(F)ccc2[C@@H]1C(C)C,active: 10.4 µM
